Test results reported in PubChem BioAssay AID760 (NMMLSC, 2007).
Among all 190,000 compounds or so, about 360 (0.19%) were called active. The shares of active, inactive and inconclusive entries below differ from those in the screen.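 How the source made its calls: active means GTP binding activity at least 20 points away from 100%, either lowered or raised; inconclusive means signal likely due to the compound's own green fluorescence; inactive means the rest.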

molecular target: Ras-related protein Rab-2A (Canis lupus familiaris) (UniProt P61105); assay: Rab2 wt fluorescent GTP binding changes, either direction – biochemical, dog, bead-based flow cytometry, multiplex, primary screen (AID 760); conditions: GST-Rab2 wt beads, Bodipy-GTP binding, at 10 µM;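 further: 0% = beads with excess unlabeled GTP and 100% = no-compound control corrected for plate trend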

Row | Structure (SMILES) | GTP binding activity
1 | O=C(c1ccc([N+](=O)[O-])cc1[N+](=O)[O-])N1CCCC1 | inconclusive: 94%
2 | Cc1c(Cl)c([N+](=O)[O-])nn1Cc1ccc(C(=O)N/N=C\c2cc(Cl)ccc2O)o1 | inconclusive: 90%
3 | Cc1cc(Cl)ccc1OCC(=O)N1CCN(c2ncccn2)CC1 | inconclusive: 92%
4 | CCCc1nn(C)c(C(=O)Nc2cccc(C)c2)c1Cl | inconclusive: 101%
5 | O=S(=O)(Nc1ccc(O)c(Sc2nc3ccccc3s2)c1)c1ccc(Cl)cc1 | inconclusive: 91%
6 | COc1ccc(CN2CCNC(=O)C2CC(=O)N2CCc3ccccc3C2)c(OC)c1 (configuration not stated) | inconclusive: 95%
7 | COC(=O)N/N=C/c1cc(Br)ccc1O | inconclusive: 96%
8 | O=C(OCc1ccc2c(c1)OCO2)c1ccc(S(=O)(=O)N2CCCCC2)cc1 | inconclusive: 103%
9 | COc1ccc(CNC(=O)c2cc3c(C)nc4ccccc4c3o2)c(OC)c1 | inconclusive: 95%
10 | O=C(/C(=C/c1ccccc1)c1ccccc1)N1CCCCC1 | inconclusive: 113%
11 | O=C(CSc1cccc(C(F)(F)F)c1)NC(=O)c1ccccc1 | inconclusive: 101%
12 | O=[N+]([O-])c1ccccc1CN1CCN(Cc2ccccn2)CC1 | inconclusive: 91%
13 | CCOC(=O)c1cc(C(=O)OCC)c(=O)[nH]c1C | inactive: 100%
14 | CC(C)c1ccc(/C=C/C(=O)n2nnc3ccccc32)cc1 | inconclusive: 89%
15 | O=c1c(/C=N/Nc2ccccc2)c(Sc2nnnn2-c2ccccc2)nc2ccccn12 | inconclusive: 129%
16 | C=CCNC(=S)N/N=C/c1ccc(-c2ccc(OC)cc2)o1 | inconclusive: 87%
17 | COc1cccc(/C=C2\SC(=S)N(c3cccnc3)C2=O)c1OC | inconclusive: 87%
18 | Nc1ccc2c(c1)C(=O)C(=O)c1ccccc1-2 | inactive: 84%
19 | COc1ccccc1-c1nnc(SCC(=O)c2ccc(C3CCCCC3)cc2)n1Cc1ccco1 | inconclusive: 91%
20 | c1ccc(OCc2cc(-c3ccccc3)no2)cc1 | inactive: 97%
21 | CC(C)(C)SCCNC(=O)c1cccc([N+](=O)[O-])c1 | inconclusive: 98%

Row | Structure (SMILES) | GTP binding activity
22 | O=C(O)c1cccc(NC(=S)N/N=C/c2ccccc2OCc2ccc(Br)cc2)c1 | inactive: 93%
23 | CC(C)NC(=O)NC(=O)CSc1nnc(-c2ccccc2F)n1N | inactive: 97%
24 | Cc1cc2nccc(-c3ccc(Cl)c([N+](=O)[O-])c3)n2n1 | inactive: 96%
25 | Nc1c(C(=O)NCC2CCCO2)sc2nc3c(c(-c4ccco4)c12)CC/C3=C\c1ccco1 (configuration not stated) | inconclusive: 84%
26 | O=C(COc1ccc(Cl)cc1)NNC(=O)CSc1nncs1 | inactive: 97%
27 | O=C(O)CC/C(=C\c1ccc(N2CCOCC2)c([N+](=O)[O-])c1)c1nc2ccccc2s1 | active: 74%
28 | COC(=O)C1=C(C)N(c2cccc(Cl)c2)C(=O)C1 | inconclusive: 102%
29 | COCCn1c(SCC(=O)Nc2cc(C)cc(C)c2)nnc1C(C)C | inconclusive: 101%
30 | O=C(Nc1ccccc1)N1CCOCC1 | inconclusive: 102%
31 | S=C(Nc1ccc(Oc2ccccc2)cc1)NC1CCCCC1 | inactive: 115%
32 | CCOC(=O)c1cnc2nc(C)nn2c1N | inactive: 99%
33 | N/C(=N\OC(=O)CC1CCCCC1)c1ccccn1 | inconclusive: 106%
34 | Cc1ccc(NCC(=O)NNC2=NCCC2)c(C)c1 | inactive: 98%
35 | COC(=O)c1cc(Br)c(N)cc1OC | inactive: 94%
36 | Nc1nn2c(-c3ccccc3)cc(=O)[nH]c2c1N=Nc1ccc(O)cc1 | inconclusive: 70%
37 | CCn1cc(C(=O)OCC(=O)c2cc(C)n(-c3cccc(C(F)(F)F)c3)c2C)c(=O)c2ccc(C)nc21 | active: 72%
38 | O=C1C(=O)N(Cc2ccccc2)C(=O)N1CCN1C(=O)c2ccccc2C1=O | inconclusive: 89%
39 | Cc1ccsc1/C=N/n1c(-c2ccncc2)n[nH]c1=S | inactive: 100%
40 | COc1ccc(C/C(N)=N/OC(=O)c2ccco2)cc1OC | inactive: 101%
41 | Clc1ccc(SCCCCN2CCOCC2)cc1 | inconclusive: 102%
42 | COc1ccccc1C(=O)O/N=C(/c1ccncc1)c1ccc([N+](=O)[O-])cc1 | inactive: 97%

Row | Structure (SMILES) | GTP binding activity
43 | O=C(COc1ccc(Br)cc1)c1ccc2c(c1)CCCC2 | inconclusive: 96%
44 | CNc1c([N+](=O)[O-])cnn1-c1ccc(Cl)cc1 | inconclusive: 94%
45 | COC(=O)Oc1ccc(/C=N/NC(=O)CSCc2ccc(Cl)cc2)cc1OC | inactive: 98%
46 | Cc1ccc(-c2csc3nc(C)n(N)c(=O)c23)o1 | inconclusive: 104%
47 | CCCc1nc2cc(Cl)c([N+](=O)[O-])cc2o1 | inconclusive: 97%
48 | CC(=O)NC(c1ccco1)c1ccc2cccnc2c1O (configuration not stated) | inconclusive: 88%
49 | CN(C)S(=O)(=O)c1ccc(C(=O)OCC(=O)Nc2ccccc2OC(F)F)cc1 | inconclusive: 106%
50 | CCC(CC)C(=O)Nc1cccc(C(=O)Nc2ccc(OC)cc2[N+](=O)[O-])c1 | inconclusive: 106%
51 | O=C1c2ccccc2-c2onc3ccc(Oc4ccccc4)c1c23 | active: 79%
52 | COc1ccc(N2C(=S)NC3N2C(=S)NC3(C)c2ccccc2)cc1 (configuration not stated) | inactive: 99%
53 | O=C1C2CC=CCC2C(=O)N1c1ncn[nH]1 (configuration not stated) | inconclusive: 692%
54 | CCNC(=S)N/N=C(\C)c1ccc2ccccc2c1OC(F)F | inconclusive: 92%
55 | COc1ccc(CNc2oc(COc3ccc(Cl)cc3)nc2C#N)cc1 | inconclusive: 106%
56 | CCCCN1CN(S(=O)(=O)c2cccs2)c2nc3ccccc3nc21 | inconclusive: 107%
57 | C#CCNC(=O)C1=C[C@H](c2ccc(C(F)(F)F)cc2)[C@@H](CCCO)[C@H](OCC)O1 | inactive: 100%
58 | CC1=NN(c2ccc(S(=O)(=O)O)cc2C)C(=O)C1 | inconclusive: 96%
59 | Cc1ccc(NCC(=O)c2ccccc2)cc1Cl | inactive: 88%
60 | Cc1sc2ncnc(N/N=C/c3ccc(O)cc3)c2c1C | active: 77%
61 | Cc1cc(-c2n[nH]c(=S)n2/N=C/c2ccc(Cl)c([N+](=O)[O-])c2)n[nH]1 | inactive: 92%
62 | CCOC(=O)c1cc2c(N)c(C(=O)c3ccc(Br)cc3)sc2[nH]c1=O | active: 71%
